The list shows a part of the results.
What follows are sequences tested against T1, OsWOX13 (Oryza sativa, UniProt Q5QMM3 1-267) (assay: protein-binding microarray (RPBM); PBS, 2% BSA, 51.3 ng/ul salmon testes DNA, 50 uM zinc acetate, 200 nM TF, 25 C, 1 h; high values mean tight binding). Conditions: protein: recombinant; tags: N-terminal polyhistidine and DsRed monomer fusion (pET32a); label: CyDye5-dUTP incorporated in the synthesized complementary strand; 3' TTTTT single-stranded linker to array surface; dsDNA, one strand shown.
T1 sequence: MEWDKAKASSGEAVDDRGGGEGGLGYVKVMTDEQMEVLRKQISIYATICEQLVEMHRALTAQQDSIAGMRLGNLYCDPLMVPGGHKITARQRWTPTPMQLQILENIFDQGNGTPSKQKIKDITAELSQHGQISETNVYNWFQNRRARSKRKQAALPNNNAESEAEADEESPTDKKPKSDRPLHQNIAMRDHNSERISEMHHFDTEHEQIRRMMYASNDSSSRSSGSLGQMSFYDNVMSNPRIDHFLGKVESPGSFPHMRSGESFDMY
In short: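 The binding signal is fluorescence intensity per array feature (arbitrary units). Readings came from an Axon 4000B scanner after a washed, 2% BSA-blocked, double-stranded custom Agilent array had been incubated for 1 h at 25 °C with 200 nM protein and 50 µM zinc acetate. The protein was a Ni–NTA-purified transcription factor fused N-terminally to polyhistidine and DsRed, expressed in E. coli BL21-CodonPlus.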

| Sequence | binding signal |
| --- | --- |
| TGACAAAATTGCAACGGAAATTTCTTGGATTTAAATGCAGCGGAGTCACCTAGTGCAG | 5780 fluorescence intensity (a.u.) |
| AGTATGTATTAATTAAGCAAACACTCTAGCTTATTTTCTACGGAGTCACCTAGTGCAG | 3340 fluorescence intensity (a.u.) |
| GGATACTAATTAGATTGGAAGTATATTTACACTCAGTCACCGGAGTCACCTAGTGCAG | 41600 fluorescence intensity (a.u.) |
| AATCCAAATTACTACTCCCTCCGTATTTTAATATATGACGCGGAGTCACCTAGTGCAG | 3270 fluorescence intensity (a.u.) |
| TTGTAAATTTATTTAATTATACACATATACCTACTTAAAACGGAGTCACCTAGTGCAG | 25100 fluorescence intensity (a.u.) |
| CCTAATTAATCACTCCTTGGTATGCTAAATGCTGTCCTAACGGAGTCACCTAGTGCAG | 37100 fluorescence intensity (a.u.) |
| ATATTACCAAAATTTTGACAGGATTTTATATGTATTTATCCGGAGTCACCTAGTGCAG | 6380 fluorescence intensity (a.u.) |
| TATATATATATATATCCGATCCATTTTCATCCCCACTTAACGGAGTCACCTAGTGCAG | 3620 fluorescence intensity (a.u.) |
| TGTAATTATATTTCTATTATATACTGTAGTTGCATTTGAACGGAGTCACCTAGTGCAG | 15500 fluorescence intensity (a.u.) |
| ACTTATTAAACCTGATTGGAGCCATGTTTGAAAACACAACCGGAGTCACCTAGTGCAG | 20800 fluorescence intensity (a.u.) |
| AGATTGTTAGATTATTATTAGCATTTTATAGTACAGCCAGCGGAGTCACCTAGTGCAG | 3590 fluorescence intensity (a.u.) |
| AGGAATATATATAATTTACAAATAACTAAAATTTGATATTCGGAGTCACCTAGTGCAG | 4110 fluorescence intensity (a.u.) |
| GCATACATATGATTGTTTTAGCAACTTGTTTGACGGCATGCGGAGTCACCTAGTGCAG | 13700 fluorescence intensity (a.u.) |
| GAGTAACTAATTAGTTACTCTTAAAACAATACCGTGCACCCGGAGTCACCTAGTGCAG | 30100 fluorescence intensity (a.u.) |
| ATTAATTTAGCACTTTCTCCTGTACTGGCAATCTGGATTTCGGAGTCACCTAGTGCAG | 15100 fluorescence intensity (a.u.) |
| CCGAAACTTTTGAATTACCAAAATTATGGTAGAGAATCAACGGAGTCACCTAGTGCAG | 6050 fluorescence intensity (a.u.) |
| AAGCTGAAATTTGTTAGAGTAATAGTTGACACCATTACCACGGAGTCACCTAGTGCAG | 3160 fluorescence intensity (a.u.) |
| GATGAATTAGTGTAGGATTAATTATATATTAGTTAAAGAACGGAGTCACCTAGTGCAG | 4000 fluorescence intensity (a.u.) |
| TTAAACTGATAAACTATATCACTATATTATCCAAGCAATCCGGAGTCACCTAGTGCAG | 15100 fluorescence intensity (a.u.) |
| GTCTAATTAGTCCATGATTAATTAGCCATAAGTTCTACAGCGGAGTCACCTAGTGCAG | 53100 fluorescence intensity (a.u.) |
| AAAATATATTAACTGGAATTCCAAGTGTATTACCTCATGTCGGAGTCACCTAGTGCAG | 7370 fluorescence intensity (a.u.) |

| Sequence | binding signal |
| --- | --- |
| CACTAATATGTGCTGTTATAAATGCTATTCCTTTGTTATTCGGAGTCACCTAGTGCAG | 3720 fluorescence intensity (a.u.) |
| ATGATTGCACAATGTGCCAGAAAGCACTGCCTCATGCTCACGGAGTCACCTAGTGCAG | 22500 fluorescence intensity (a.u.) |
| GGATTAATTTTAATCTTCGTTTCGAACAAAGAAATTAAGACGGAGTCACCTAGTGCAG | 6550 fluorescence intensity (a.u.) |
| CTAAGTGGTAAATTTGGGTGTAAACAGACACATATGCGAACGGAGTCACCTAGTGCAG | 3470 fluorescence intensity (a.u.) |
| TATATATATATATATATATATATATATATATATAAACAAACGGAGTCACCTAGTGCAG | 16700 fluorescence intensity (a.u.) |
| TCTTAATTACACGTGAGCTATATTTGTACTGCCTTGGTCCCGGAGTCACCTAGTGCAG | 40600 fluorescence intensity (a.u.) |
| TGTGTCATCTGCGGCCTAATTGCTTGATTCATCGATCTTACGGAGTCACCTAGTGCAG | 5830 fluorescence intensity (a.u.) |
| CTGTTAATTTAGGACACTGCAAGCCTCTGCATAGGCTTTCCGGAGTCACCTAGTGCAG | 6340 fluorescence intensity (a.u.) |
| GGTGACGCTGTCAGTCAGTCAGTCAAAGTAATCAACCGCGCGGAGTCACCTAGTGCAG | 7620 fluorescence intensity (a.u.) |
| TCCTAATGAAGATTTGGAACTTCGAAGTGTAGCTGAATGGCGGAGTCACCTAGTGCAG | 6500 fluorescence intensity (a.u.) |
| ATAGATAGATTATATACAAAGGCAAAGCTTTTGTGCCCTTCGGAGTCACCTAGTGCAG | 25600 fluorescence intensity (a.u.) |
| CTCCCCTAATTAAAAGTACAACAAATTGAAGGCATTTTGGCGGAGTCACCTAGTGCAG | 16900 fluorescence intensity (a.u.) |
| TGTCCATTGTTGATTAATGCTAAATACATATAACGGATTGCGGAGTCACCTAGTGCAG | 4490 fluorescence intensity (a.u.) |
| CATATTGTTTTGATTCTACATAATTTATAAGTTGAATTTCCGGAGTCACCTAGTGCAG | 3600 fluorescence intensity (a.u.) |
| TTAGACACTAATTTAGAGTATTAAATATAGACTACTTACACGGAGTCACCTAGTGCAG | 6410 fluorescence intensity (a.u.) |
| TTGTTGCATTATCTGTCAAATTATCTAACAACATTATCTTCGGAGTCACCTAGTGCAG | 3880 fluorescence intensity (a.u.) |
| TTTGATGAGGCAATACTAACTGCATCATCGCAACAGCTTACGGAGTCACCTAGTGCAG | 5350 fluorescence intensity (a.u.) |
| TGTAATTAAAATTCTATGATTGCAATTTGTAAACTTTAAACGGAGTCACCTAGTGCAG | 5460 fluorescence intensity (a.u.) |
| TTGGTAAATTGCTTTGGTAAGTTAAGAGGTCACATCACTACGGAGTCACCTAGTGCAG | 5580 fluorescence intensity (a.u.) |
| AAGGTCAAATTAATAATGGAATGGATGGTATTGCCTTGAGCGGAGTCACCTAGTGCAG | 7630 fluorescence intensity (a.u.) |
| TCGATTGGATTTGCTGTGAGGATCAAGTATGATTTGCCCACGGAGTCACCTAGTGCAG | 4470 fluorescence intensity (a.u.) |
